This is one part of the list.
Target: no compound (DMSO)
Assay: log2 fold change of degron read counts, EGFP-low vs EGFP+ sorted cells; higher = lower degron-EGFP level without compound (poor expression or instability)
Conditions: compound: DMSO control; 18 h
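Further: jurkat cells carrying a lentiviral library of mutant zinc finger degrons fused to EGFP plus mCherry, mCherry+ cells FACS sorted, degron abundance counted by next-generation sequencing.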

Sequence | log2 fold change of degron read counts
LCCPICGFECTQKGNLLRHIKL | 0.136
FKCPICGRTFTQKGNLLRHIKL | -1.11
LSCPICGFFCTQKGNLLRHIKL | 1.41
FRCSVCGHMFTQKGNLLRHIKL | 0.142
FDCDVCGAKFTQKGNLLRHIKL | -2.32
FFCNQCGRFFTQKGNLLRHIKL | 1.64
FWCPVCGAHFTQKGNLLRHIKL | 1.18
FTCEICGATFTQKGNLLRHIKL | -2.54
FVCDICGAAFTQKGNLLRHIKL | -1.55
FVCEQCGAAFTQKGNLLRHIKL | -2.32
FQCEVCGAVFTQKGNLLRHIKL | -1.19
FICPQCGARFTQKGNLLRHIKL | -0.249
FHCEICGHPFTQKGNLLRHIKL | -0.000725
FECSVCGHHFTQKGNLLRHIKL | -0.879
FACPICGAGFTQKGNLLRHIKL | -0.0546
FACNQCGHTFTQKGNLLRHIKL | -1.41
FHCPICGAQFTQKGNLLRHIKL | -0.0161
FGCPICGACFTQKGNLLRHIKL | 0.0742
FACPICGHMFTQKGNLLRHIKL | 0.106
FNCPICGAPFTQKGNLLRHIKL | 0.495
FDCDICGAKFTQKGNLLRHIKL | -1.62
FSCNICGAPFTQKGNLLRHIKL | 0.398
FKCPICGANFTQKGNLLRHIKL | -0.109
FNCNQCGAVFTQKGNLLRHIKL | -0.445
LVCEICGFGCTQKGNLLRHIKL | 0.0516

Sequence | log2 fold change of degron read counts
FLCPICGREFTQKGNLLRHIKL | -0.134
LSCNQCGFKCTQKGNLLRHIKL | 0.205
FTCNQCGRFFTQKGNLLRHIKL | -0.107
FECEVCGAGFTQKGNLLRHIKL | -2.2
FFCPVCGAPFTQKGNLLRHIKL | 0.491
FLCEQCGAMFTQKGNLLRHIKL | -1.3
FTCPQCGAKFTQKGNLLRHIKL | -1.41
FQCPICGHPFTQKGNLLRHIKL | 0.261
FACNQCGACFTQKGNLLRHIKL | -0.887
FTCPICGRLFTQKGNLLRHIKL | -0.317
FFCPVCGAYFTQKGNLLRHIKL | 1.39
FSCPICGHMFTQKGNLLRHIKL | 0.00181
FVCEQCGADFTQKGNLLRHIKL | -3.17
FVCPQCGAEFTQKGNLLRHIKL | -3.33
FMCDVCGAQFTQKGNLLRHIKL | -1.17
FHCEVCGALFTQKGNLLRHIKL | -1.49
FWCNICGAHFTQKGNLLRHIKL | 1.01
FNCPQCGAVFTQKGNLLRHIKL | -0.63
FNCEICGHHFTQKGNLLRHIKL | -0.891
FCCEQCGASFTQKGNLLRHIKL | -2.81
FQCEICGAAFTQKGNLLRHIKL | -1.9
LACPICGFKCTQKGNLLRHIKL | 0.79
FWCEICGHTFTQKGNLLRHIKL | -1.38
LKCNQCGFCCTQKGNLLRHIKL | 0.54
FTCSVCGHGFTQKGNLLRHIKL | -0.656
